# PubChem BioAssay AID743279 (National Center for Advancing Translational Sciences (NCATS), 2014)
# Screen size: about 360,000 compounds; about 17,000 (4.7%) were called active. Inconclusive means that the source gave no clear call. Such entries were picked first, then a sample of the others. No stated cut-off is given here; in the data, active means activity change below about -50%; inconclusive means mostly about -30% to -49%; inactive means weaker than that.
# Experiment: qHTS for Inhibitors of Inflammasome Signaling: IL-1-beta AlphaLISA Primary Screen
# Conditions: THP-1 LPS/ATP IL-1B secretion, 16 h; at 57.5 µM, hits give low values
# Outline: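 Secreted IL-1B measured by AlphaLISA bead assay after 16 h compound exposure of THP-1 cells; compounds (final up to 57.5 uM) added 1 h before LPS (250 ng/mL) and ATP (1.25 mM) stimulation; lower signal means less secretion.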
# On the % scale 0 is the no-effect control and ±100 the full control effect.
row,SMILES,activity change
1,O=C(COc1ccc2c3c(c(=O)oc2c1)CCCC3)NCc1cccnc1,inconclusive: -38.6%
2,Cc1cc(NC(=O)COC(=O)CNS(=O)(=O)c2c(F)cc(F)cc2Br)no1,inconclusive: -39%
3,CCNS(=O)(=O)c1ccc(CCC(=O)Nc2cc(Cl)ccc2Oc2ccccc2)cc1,inconclusive: -42.6%
4,O=C(COCC(=O)Nc1cccc(C(F)(F)F)c1)Nc1cccc(C(F)(F)F)c1,inconclusive: -46.5%
5,Cc1[nH]ccc2cc3nc4ccccc4c3cc12,active: -57.7%
6,O=C(CNC(=O)c1ccc(S(=O)(=O)N2CCCCC2)cc1)N/N=C/c1ccco1,inconclusive: -34.1%
7,Cc1ccccc1C(=O)N1CCN(c2ncnc3c2cnn3-c2ccccc2)CC1,inconclusive: -49.8%
8,Cc1nc(N/N=C/c2ccccn2)sc1C,active: -101%
9,CC(C)(C)C(=O)c1cnc(Nc2ccccc2Cl)s1,inconclusive: -48.1%
10,COc1cc([N+](=O)[O-])ccc1NC(=O)C[n+]1ccccc1,inactive: 13.1%
11,OCCN1CCN(c2cc(-c3ccccc3)c3ccccc3n2)CC1,inconclusive: -37.3%
12,Cc1cc(C(=O)CCl)c(C)n1-c1ccon1,active: -95%
13,NC(c1csc(Nc2ccc(C(=O)c3ccccc3)cc2)n1)C1CCCCC1 (stereo not drawn),inconclusive: -43%
14,CN1C[C@@H]2C(c3ccc(C(F)(F)F)cc3)C3(c4cccnc4)CC2(C3)[C@H]1c1ccccc1 (stereo partly drawn),inconclusive: -45.2%
15,O=C1CCSc2ccc(Cl)cc2N1Cc1ccc(Cl)cc1,inconclusive: -30.3%
16,COc1ccccc1C1CC(=O)Nc2cc(C)c(C)cc21 (stereo not drawn),inactive: 40.3%
17,O=C1OCCC1Sc1nnc(-c2ccc(F)cc2)n1Cc1ccccc1 (stereo not drawn),inactive: -1.96%
18,COc1ccccc1CNc1nc(NCc2ccc3occc3c2)c2sccc2n1,active: -99.8%
19,Cc1ccc([N+](=O)[O-])cc1NC(=O)c1ccc(C(C)(C)C)cc1,inconclusive: -31.4%
20,CCc1cccc(NC(=O)CSC2=NS(=O)(=O)c3ccccc32)c1,inconclusive: -45.5%
21,CCOC(=O)c1ccc2cccc(C)n2c1=O,inconclusive: -32.6%
22,CCOC(=O)c1sc(NC(=O)C(CC)OC(=O)c2ccco2)nc1C (stereo not drawn),active: -83.7%

row,SMILES,activity change
1,CN1/C(=C\C(=O)c2ccco2)C(C)(C)c2ccccc21,inconclusive: -37.1%
2,C/C(CC(=O)Nc1ccc2ccccc2c1)=N\NC(=O)c1cnccn1,inconclusive: -32%
3,COc1ccc(NC(=O)NN(C(=O)c2ccccc2)C(C)(C)C)cc1,inactive: 17.8%
4,Cc1cccn2c(=O)c(/C=C(\C#N)C(N)=O)c(N3CCN(Cc4ccc5c(c4)OCO5)CC3)nc12,active: -51.4%
5,Cc1cccn2c(=O)c3cc(C(=O)N4CCN(C(=O)c5ccco5)CC4)n(C)c3nc12,inconclusive: -41.6%
6,CC(C)Oc1ccc(S(=O)(=O)N2CCOCC2)cc1NC(=O)c1ccc(Cl)c(S(=O)(=O)N2CCOCC2)c1,inconclusive: -47.2%
7,Cc1ccc(COc2ccc(-c3nnco3)cc2)cc1,inconclusive: -36.3%
8,COc1ccc(-c2sc(Nc3ccccc3)n[n+]2-c2ccccc2)cc1Br,inconclusive: -30.8%
9,O=C(CSc1nnc(-c2n[nH]c3ccccc23)n1-c1ccccc1)Nc1ccccc1Cl,inconclusive: -44.9%
10,NC(=O)c1ccccc1NC(=O)/C=C/c1cccc(Cl)c1,inconclusive: -32%
11,COCC(C)n1c(SCc2ccc(C(=O)OC)o2)nc2ccccc2c1=O (stereo not drawn),inconclusive: -45%
12,Cc1ccc(N=C2NC(=O)/C(=C/c3cccnc3)S2)c(C)c1,inconclusive: -32.6%
13,COc1cccc(CN2CCN(C(=O)c3cc(-c4ccncc4)nc4ccc(C)cc34)CC2)c1,inactive: -13.9%
14,COc1ccc(S(=O)(=O)N2CCOCC2)cc1NC(=O)CO/N=C/c1ccccc1OC(F)F,inconclusive: -30.6%
15,CCC(NC(=O)Nc1nnc(C(F)(F)F)s1)(C(F)(F)F)C(F)(F)F,active: -72.9%
16,O=C(CN1C(=O)NC2(CCCCCCC2)C1=O)NCc1ccc(Cl)cc1,inconclusive: -37.8%
17,c1ccc(CSc2nnnn2-c2ccccc2)cc1,inconclusive: -44.2%
18,Cc1cc(C)cc(OCC(=O)Nc2cccc(-c3nc4ncccc4o3)c2)c1,inconclusive: -35.3%
19,CC(=O)Nc1ccc(NC(=O)Nc2ccc(C)cc2C)cc1,inconclusive: -39.1%
20,CCC(c1nnnn1Cc1ccc(F)cc1)N1CCN(C2CCCCC2)CC1 (stereo not drawn),inconclusive: -33.4%
21,O=C1CC(=C(c2ccccc2)c2ccccc2)C(=O)N1CCCCN1CCN(c2ccccc2)CC1,inconclusive: -46.9%
